Reference: article PMC4336329 (PLoS ONE, 2015)
In all, about 310,000 compounds went through this assay and about 2,200 (0.71%) showed an effect of 50% or more. Effects have a minus sign here. The list shows a part of the results.

Target: human ether-à-go-go-related gene (hERG) potassium channel (human, UniProt Q12809)
Assay: primary screen, population patch clamp on CHO cells stably expressing hERG

Sequence of human ether-à-go-go-related gene (hERG) potassium channel (Q12809 whole entry, looked up): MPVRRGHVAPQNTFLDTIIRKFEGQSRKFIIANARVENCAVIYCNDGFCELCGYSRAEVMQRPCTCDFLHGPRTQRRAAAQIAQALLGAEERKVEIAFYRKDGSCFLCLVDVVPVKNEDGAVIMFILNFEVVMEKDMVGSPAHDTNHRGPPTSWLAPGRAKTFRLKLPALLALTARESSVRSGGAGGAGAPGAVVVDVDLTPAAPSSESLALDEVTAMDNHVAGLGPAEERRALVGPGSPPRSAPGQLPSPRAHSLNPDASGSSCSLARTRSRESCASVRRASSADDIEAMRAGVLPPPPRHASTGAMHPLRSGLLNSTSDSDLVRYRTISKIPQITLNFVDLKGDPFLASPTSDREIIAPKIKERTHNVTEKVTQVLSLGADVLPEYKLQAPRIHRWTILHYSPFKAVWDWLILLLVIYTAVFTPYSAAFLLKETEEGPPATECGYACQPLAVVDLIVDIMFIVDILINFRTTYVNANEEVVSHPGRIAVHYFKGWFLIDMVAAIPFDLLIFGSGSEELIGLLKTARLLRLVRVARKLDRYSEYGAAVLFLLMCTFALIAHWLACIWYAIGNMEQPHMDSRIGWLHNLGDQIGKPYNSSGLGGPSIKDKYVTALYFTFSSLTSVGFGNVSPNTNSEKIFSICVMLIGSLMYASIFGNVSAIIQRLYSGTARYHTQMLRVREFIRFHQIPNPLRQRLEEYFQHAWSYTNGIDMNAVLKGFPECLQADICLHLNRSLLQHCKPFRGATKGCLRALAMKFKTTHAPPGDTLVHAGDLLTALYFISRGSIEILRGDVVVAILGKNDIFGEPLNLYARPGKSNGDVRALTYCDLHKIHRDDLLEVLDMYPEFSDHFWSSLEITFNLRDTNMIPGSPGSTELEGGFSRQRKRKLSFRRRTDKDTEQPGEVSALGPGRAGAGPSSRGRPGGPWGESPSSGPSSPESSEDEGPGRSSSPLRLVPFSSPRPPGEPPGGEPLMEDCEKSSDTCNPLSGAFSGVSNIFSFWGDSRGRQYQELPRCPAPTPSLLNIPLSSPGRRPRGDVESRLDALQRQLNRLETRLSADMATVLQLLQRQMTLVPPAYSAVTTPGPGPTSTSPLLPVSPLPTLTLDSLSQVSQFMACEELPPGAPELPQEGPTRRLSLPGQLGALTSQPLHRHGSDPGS

Structure (SMILES)	hERG current change (%, negative = inhibition) at 1uM
COCCn1c(SCC(=O)Nc2ccc(S(N)(=O)=O)cc2)nc2ccccc21	0.914%
Cc1cccc(C)c1OCC(=O)Nc1cccc(-c2nnc(-c3ccccc3)o2)c1	10.1%
COc1ccc(NC(=O)C2CC(=O)N(c3ccccc3C)C2)c(OC)c1 (stereo not shown)	9.16%
O=C(Cn1c(=O)oc2ccccc21)NCCc1ccccc1	4.46%
CCOC(=O)c1c(NC(=O)/C=C\C(=O)O)sc(C)c1-c1ccccc1	2.5%
Cc1csc(SCC(=O)NC(=O)NCc2ccccc2)n1	2.15%
Cc1cc2occ(CC(=O)N(C)CC(=O)Nc3cccc(F)c3)c2cc1C	1.48%
O=C(Nc1ccc(Nc2ccccc2)cc1)c1ccc(Br)cc1	7.85%
CCOC(=O)N1CCN(Cc2nc(N)nc(Nc3ccc(C)cc3C)n2)CC1	3.69%
Cc1ccc(NC(=O)CSc2nc(N)c3cc4c(nc3n2)CCCC4)cc1	10%
COc1ccc(Cl)cc1C(=O)NNC(=O)CN1C(=O)C2CC=CCC2C1=O (stereo not shown)	10.8%
COc1ccc(C(=O)/C=C/N(C)C)cc1OC	7.71%
Cc1cc(C(=O)CSc2nn3c(=O)c(C(C)(C)C)nnc3s2)c(C)n1C1CC1	26.9%
Cc1ccc(S(=O)(=O)N2CCN(C(=O)n3ccnc3)CC2)cc1	7.26%
CN(CCc1ccccn1)C1CCCN(S(=O)(=O)c2ccc(F)c(Cl)c2)C1 (stereo not shown)	-15.6%
CS(=O)(=O)O.Oc1ccc(C2CNCCc3c2cc(O)c(O)c3Cl)cc1 (stereo not shown)	-0.982%
COc1ccc(S(=O)(=O)N2CCC(C(=O)NCCc3ccccc3)CC2)cc1	9.96%
COC(=O)c1ccc(-n2cc(-c3ccc(OC)cc3)[nH]c2=S)cc1	26.3%
CCN(CC)c1ccc(/C=c2/sc3nnc(-c4ccccc4C)n3c2=O)cc1	11.9%
CCOC(=O)C(NC(=O)CC)(N1CCc2ccccc2C1)C(F)(F)F (stereo not shown)	-2.24%
CCCCN1CC(=O)N2[C@H]3c4ccc(OC)cc4OC[C@@H]3[C@H](C(=O)OCC)[C@]2(C)C1=O	16.8%
Cc1ccc2nc(-c3ccncc3)c(NC3CCCCC3)n2c1	10.7%

Structure (SMILES)	hERG current change (%, negative = inhibition) at 1uM
C(=N\Nc1ccc2nncn2n1)/c1ccccn1	16.5%
Cc1ccc[n+](CC(=O)Nc2ccc([N+](=O)[O-])cc2)c1.[Cl-]	17.6%
Cc1cccc(NNC(N)=S)c1	12.4%
Cc1cnc(C(=O)NCC(c2ccccc2)c2ccccc2)cn1	-1.77%
O=C(O)c1cccc(NS(=O)(=O)c2ccc3c(c2)C(=O)c2ccccc2C3=O)c1	16.7%
COc1ccc(C2C(C(C)=O)=C(O)C(=O)N2c2nc3ccccc3s2)cc1OC (stereo not shown)	15%
CNC(C)c1ccc(S(N)(=O)=O)cc1 (stereo not shown)	17.7%
Cc1nnc(SCCC(=O)Nc2ccc(F)cc2)s1	5.98%
COc1cc(CO)cc(Br)c1OCC(=O)Nc1cccc2ccccc12	0.893%
C=CCn1c(SCC(=O)Nc2ccccc2CC)nnc1-c1ccncc1	1.02%
O=S(=O)(Nc1ccccc1Cl)c1ccc(NS(=O)(=O)c2cccs2)cc1	12.6%
Cc1ccc(OCc2cn3cccnc3n2)cc1	6.19%
CNC(=O)c1ccc(Nc2nnc(-c3ccc(C)c(S(N)(=O)=O)c3)c3ccccc23)cc1	9.63%
CCNC(=O)C1(c2ccccc2)CCCC1	5.42%
CCOC(=O)C(C)NC(=O)Cn1ncc2c(=O)oc3ccc(C)cc3c21 (stereo not shown)	2.09%
O=C(Nc1ccc(Cl)c([N+](=O)[O-])c1)ONC1=NCCCCC1	-1.01%
CCC(=O)N1CCN(c2ccc(NC(=O)COc3ccccc3[N+](=O)[O-])cc2)CC1	10.1%
CCn1c(SCc2ccc(OC)cc2)nnc1-c1ccncc1	4.49%
CCOC(=O)CSc1nnc(NC(=O)CCc2ccccc2)s1	11.8%
CC(=O)Oc1ccc2c(=O)c(N3C(=O)c4ccccc4C3=O)c(C)oc2c1C	11.6%
Cl.O=C(O)c1ccc(Nc2nc(-c3ccccc3)nc3ccccc23)cc1	15.4%
O=C(NCc1cc(C(F)(F)F)ccc1F)C1CCC(=O)N(C2CCCCCC2)C1 (stereo not shown)	5.87%

Structure (SMILES)	hERG current change (%, negative = inhibition) at 1uM
CC(=O)N(CN1C(=O)CCC1=O)c1cccc(Cl)c1	4.51%
COc1ccc(/C=N/NC(=O)c2cc(-c3ccccc3)nc3ccccc23)cc1O	11.8%
COc1cccc(-n2cc3c(c2-c2ccccc2)c(=O)n(C)c(=O)n3C)c1	-12.3%
COc1ccc2c(CCNC(=O)Nc3ccccc3)c[nH]c2c1	10.6%
Cc1ccc(Nc2nc(N)nc(CN3CCc4ccccc4C3)n2)cc1	-31.5%
COc1ccc(CCn2c(-c3ccc(Cl)cc3)n[nH]c2=S)cc1OC	17.3%
COc1ccc(S(=O)(=O)N(C)C)cc1NC(=O)[C@H](Cc1ccccc1)N1C(=O)c2ccccc2C1=O	2.05%
N#C/C(=C\c1cccs1)C(=O)c1ccccc1Cl	10.5%
Cn1c(=O)c2c(ncn2CCOc2ccc(F)cc2)n(C)c1=O	20.7%
CC(=O)Nc1ccc(S(=O)(=O)Nc2ccc(Cc3ccncc3)cc2)cc1	7.78%
O=C(CN(C(=O)CNC(=O)c1ccco1)c1ccc(Cl)c(Cl)c1)NC1CCCCC1	6.31%
N#Cc1c(-c2ccc3c(c2)OCO3)csc1N	14.3%
COCc1cc(C)nc2sc(C(=O)Nc3ccccc3OC)c(N)c12	14.8%
Cc1ccccc1-c1nc(CS(=O)(=O)CC(=O)NCc2ccc3c(c2)OCO3)c(C)o1	8.28%
COc1ccccc1CCc1nnc(CCC(=O)NCC[C@@H]2C[C@@H]3C=C[C@H]2C3)o1	-3.8%
COc1ccc(F)cc1C(=O)C1CCCN(C(=O)C2=C(C)OCCO2)C1 (stereo not shown)	14.5%
Cn1c(=O)oc2cc(S(=O)(=O)N3CCN(c4ccccc4F)CC3)ccc21	9.78%
COCCn1c(Cc2ccccc2)nnc1SCC(=O)NC1CC1	11.6%
Cc1ccc(C(=O)Nc2ccncc2)cc1S(=O)(=O)N1CCOCC1	13.4%
Cc1ccc(/C=C(\C#N)C(=O)NC(C)C)o1	7.59%
COc1ccc(-c2[nH]ncc2CN2CCC(C(=O)N3CCOCC3)CC2)c(F)c1	7.21%
Cc1ccc(-n2ncc3c2CCCC3NC(=O)c2ccoc2)cc1C (stereo not shown)	-78.5%

Structure (SMILES)	hERG current change (%, negative = inhibition) at 1uM
O=C(CN1CCC(C(=O)c2cccc(Cl)c2)CC1)Nc1cccc(C(=O)O)c1	8.11%
Oc1ccc(-c2n[nH]c(=S)n2Cc2ccccc2)cc1	7.69%
COC(=O)c1ccc(C(=O)NC(=S)Nc2ccc3nc(SC)sc3c2)cc1	-10.5%
CCOc1ccc(N(Cc2ccc(C(=O)O)cc2)S(=O)(=O)c2ccc(C)cc2)cc1	3.02%
Cc1ccc(C(=O)C2CCN(CC(=O)Nc3ccccc3C)CC2)cc1	-31.8%
COc1ccc(OCCSc2ncnc3nc[nH]c23)cc1	10.6%
Cc1c(C(C)C[C@H](C)O)oc(=O)c2c1Oc1c(C)c(C(C)C[C@H](C)O)oc(=O)c1C2 (stereo partly shown)	9.02%
CC(=O)NN1C(=O)/C(=C\c2ccc(C)cc2)SC1=S	13.8%
CCc1cc(C(=O)Nc2cc(S(=O)(=O)N(CC)CC)ccc2N2CCN(C)CC2)sc1C	4.55%
Cc1oc(-c2ccc3c(c2)OCCO3)cc1C(=O)NCC(=O)O	5.32%
COCCNC(=O)CS(=O)Cc1nc(-c2ccc(Cl)cc2)oc1C (stereo not shown)	11%
Cc1ccsc1C(=O)N1CCCC(CCC(=O)N2CCN(c3ccccn3)CC2)C1 (stereo not shown)	12.6%
O=C(CN1C(=O)NC2(CCCC2)C1=O)Nc1ccc(Cl)c(C(F)(F)F)c1	9.87%
CCSc1nnc(Cc2cc(=O)[nH]c(=O)[nH]2)n1-c1cc(C)ccc1C	14.8%
CCOC(=O)C1CCN(C(=O)Cn2cc(C(=O)OC)c3ccccc32)CC1	-7.99%
O=C(c1cc(C2CC2)on1)N1CCCC(N2CCN(c3cccc(C(F)(F)F)c3)CC2)C1 (stereo not shown)	4.67%
CC(NC(=O)C1CC1)c1ccc(-c2ccccc2)cc1 (stereo not shown)	8.33%
CCC(=O)N(CCN1CCOCC1)Cc1cc2cc3c(cc2nc1Cl)OCO3	-31.8%
Oc1c(Cl)cc(Cl)cc1/C=N/NC(=S)NC1CC2C=CC1C2 (stereo not shown)	6.11%
Cc1[nH]c(=O)c(C#N)cc1-c1csc(-c2ccccc2)n1	14.1%
COc1ccccc1C(=O)NCC(=O)OCCCOC(=O)CNC(=O)c1ccccc1OC	13.1%
CN(C)c1ccc(/C=[N+](\[O-])C(C)(C)/C=N/O)cc1	-4.15%
